We go through 9 substances from article PMC8253491.

Sequences of proteins named here, by UniProt entry; tags and fusion partners are left off.
UniProt P60953: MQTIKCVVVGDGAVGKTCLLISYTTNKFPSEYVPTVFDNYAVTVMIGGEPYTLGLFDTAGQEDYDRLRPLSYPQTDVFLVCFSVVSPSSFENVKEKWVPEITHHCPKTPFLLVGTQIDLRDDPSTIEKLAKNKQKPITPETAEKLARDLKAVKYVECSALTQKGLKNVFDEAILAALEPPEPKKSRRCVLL
UniProt Q8IXI2: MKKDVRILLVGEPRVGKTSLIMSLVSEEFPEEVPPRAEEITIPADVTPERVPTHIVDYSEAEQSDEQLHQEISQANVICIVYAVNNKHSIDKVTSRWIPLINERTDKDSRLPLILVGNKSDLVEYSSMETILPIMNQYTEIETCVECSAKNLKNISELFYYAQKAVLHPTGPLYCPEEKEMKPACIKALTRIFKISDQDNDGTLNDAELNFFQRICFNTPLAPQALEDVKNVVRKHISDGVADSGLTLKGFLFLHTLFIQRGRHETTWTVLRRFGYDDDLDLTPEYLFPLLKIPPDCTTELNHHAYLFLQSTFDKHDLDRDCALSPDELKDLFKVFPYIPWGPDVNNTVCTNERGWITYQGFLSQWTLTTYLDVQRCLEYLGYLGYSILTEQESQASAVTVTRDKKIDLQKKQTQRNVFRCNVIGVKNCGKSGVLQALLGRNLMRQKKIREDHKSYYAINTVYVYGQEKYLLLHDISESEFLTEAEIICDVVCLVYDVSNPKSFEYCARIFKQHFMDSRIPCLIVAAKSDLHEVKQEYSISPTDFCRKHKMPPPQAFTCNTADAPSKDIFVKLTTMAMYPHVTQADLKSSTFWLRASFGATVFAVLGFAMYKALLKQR
UniProt P61586: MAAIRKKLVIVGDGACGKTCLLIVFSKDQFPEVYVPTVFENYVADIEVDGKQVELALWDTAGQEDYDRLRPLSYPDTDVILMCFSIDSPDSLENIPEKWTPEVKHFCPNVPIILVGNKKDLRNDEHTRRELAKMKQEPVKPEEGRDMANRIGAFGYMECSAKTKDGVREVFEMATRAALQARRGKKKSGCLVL
UniProt P62745: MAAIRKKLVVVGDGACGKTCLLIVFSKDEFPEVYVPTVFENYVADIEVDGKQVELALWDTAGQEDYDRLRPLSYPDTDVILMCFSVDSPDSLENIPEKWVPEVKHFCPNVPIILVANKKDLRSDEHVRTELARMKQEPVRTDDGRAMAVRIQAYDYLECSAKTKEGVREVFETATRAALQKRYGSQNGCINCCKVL
UniProt P08134: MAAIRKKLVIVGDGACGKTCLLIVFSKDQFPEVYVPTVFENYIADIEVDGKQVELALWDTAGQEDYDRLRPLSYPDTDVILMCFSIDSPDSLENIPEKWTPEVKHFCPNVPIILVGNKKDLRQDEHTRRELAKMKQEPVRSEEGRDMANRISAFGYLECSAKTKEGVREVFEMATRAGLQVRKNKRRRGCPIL
UniProt P84095: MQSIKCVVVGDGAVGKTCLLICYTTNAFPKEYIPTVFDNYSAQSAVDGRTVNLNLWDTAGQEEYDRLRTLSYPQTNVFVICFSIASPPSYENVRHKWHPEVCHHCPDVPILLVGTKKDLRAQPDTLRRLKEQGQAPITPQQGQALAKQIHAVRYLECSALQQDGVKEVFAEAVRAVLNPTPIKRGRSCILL
UniProt P17081: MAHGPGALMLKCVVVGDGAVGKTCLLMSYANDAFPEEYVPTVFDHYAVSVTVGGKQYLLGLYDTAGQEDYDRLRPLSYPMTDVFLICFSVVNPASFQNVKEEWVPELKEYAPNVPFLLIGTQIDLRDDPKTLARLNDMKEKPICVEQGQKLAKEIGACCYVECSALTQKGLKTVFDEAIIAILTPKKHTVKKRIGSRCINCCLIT
UniProt Q9H4E5: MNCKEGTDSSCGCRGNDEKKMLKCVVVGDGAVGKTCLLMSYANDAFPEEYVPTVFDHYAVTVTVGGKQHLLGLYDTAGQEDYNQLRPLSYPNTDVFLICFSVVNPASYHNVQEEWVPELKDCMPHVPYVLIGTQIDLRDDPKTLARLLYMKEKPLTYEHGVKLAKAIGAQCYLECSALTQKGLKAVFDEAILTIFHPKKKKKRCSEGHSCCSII
UniProt Q7L0Q8: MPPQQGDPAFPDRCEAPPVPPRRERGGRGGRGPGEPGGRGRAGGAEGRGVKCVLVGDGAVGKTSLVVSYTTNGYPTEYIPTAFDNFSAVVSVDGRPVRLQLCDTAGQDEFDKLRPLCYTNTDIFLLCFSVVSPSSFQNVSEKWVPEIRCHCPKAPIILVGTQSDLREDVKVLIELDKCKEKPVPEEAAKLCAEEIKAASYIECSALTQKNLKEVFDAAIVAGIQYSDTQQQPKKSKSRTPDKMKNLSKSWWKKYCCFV

For experiment [1], the target named is T1, FLAG-tagged RhoGDI-3 (human) (UniProt Q99819).
T1 sequence: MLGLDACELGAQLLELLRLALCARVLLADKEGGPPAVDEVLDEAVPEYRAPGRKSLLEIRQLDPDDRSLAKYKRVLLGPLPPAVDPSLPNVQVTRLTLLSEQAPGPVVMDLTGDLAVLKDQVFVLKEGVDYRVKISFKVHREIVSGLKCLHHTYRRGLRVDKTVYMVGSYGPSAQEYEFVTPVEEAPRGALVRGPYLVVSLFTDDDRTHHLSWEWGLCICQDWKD
Briefly: co-IP; FLAG-tagged RhoGDI-3 co-expressed with V5-tagged GTPase in HEK293T; immunoprecipitated from lysate with anti-FLAG antibody cross-linked to magnetic beads; anti-V5 Western blot. (In general: A western blot detects proteins with antibodies after separation by electrophoresis.)

The target in experiment [2] is His-tagged RhoGDI-1 (human) (UniProt P52565). Briefly: pull-down; His-tagged RhoGDI co-expressed with V5-tagged GTPase in HEK293T; RhoGDI precipitated from lysate (1% Triton X-100, 150 mM NaCl, pH 7.4) with nickel-coated magnetic beads; anti-V5 Western blot; the paper calls it coimmunoprecipitation.
Experiment [3] concerns the target T2, His-tagged or FLAG-tagged RhoGDI-1 (human) (UniProt P52565).
T2 sequence: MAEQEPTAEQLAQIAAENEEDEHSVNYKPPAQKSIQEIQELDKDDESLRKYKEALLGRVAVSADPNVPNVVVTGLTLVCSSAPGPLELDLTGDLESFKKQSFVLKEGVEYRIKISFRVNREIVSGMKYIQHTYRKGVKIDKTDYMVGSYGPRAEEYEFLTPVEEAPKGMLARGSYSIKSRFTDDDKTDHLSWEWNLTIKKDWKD
Nature of the experiment: pull-down + co-IP; His-tagged or FLAG-tagged RhoGDI-1 or RhoGDI-2 co-expressed with V5-tagged atypical GTPase or Miro in HEK293T; precipitated with nickel-coated magnetic beads or with anti-FLAG antibody cross-linked to magnetic beads (not told which in each panel); anti-V5 Western blot.

Experiment [4] concerns the target T3, His-tagged or FLAG-tagged RhoGDI-2 (human) (UniProt P52566).
T3 sequence: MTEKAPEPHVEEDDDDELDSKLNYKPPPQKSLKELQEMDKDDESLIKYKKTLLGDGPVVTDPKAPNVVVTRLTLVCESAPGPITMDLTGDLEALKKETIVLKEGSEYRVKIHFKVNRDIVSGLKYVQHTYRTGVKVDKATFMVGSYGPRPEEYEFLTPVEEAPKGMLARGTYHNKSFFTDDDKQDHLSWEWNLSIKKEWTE
The experiment is described as above.

Experiment [5] has as its target His-tagged RhoGDI-2 (human) (UniProt P52566). Nature of the experiment: pull-down; His-tagged RhoGDI co-expressed with V5-tagged GTPase in HEK293T; RhoGDI precipitated from lysate (1% Triton X-100, 150 mM NaCl, pH 7.4) with nickel-coated magnetic beads; anti-V5 Western blot; the paper calls it coimmunoprecipitation.

No constants are given. Whether binding was seen depends on the method and setting. Binding seen in cells or lysates may run through a third protein. Some entries that bind do so weakly or less than the wild type. For some assays here: Sequences can lack the tags named with a protein.

As to “V5-tagged Cdc42 (from UniProt P60953 1-191)”, the binding result in experiment [1] is listed as “no binding”; in experiment [2] it was “binds”.
With “V5-tagged Miro1 (from UniProt Q8IXI2 1-618)”, the binding result in experiment [1], in experiment [3] and in experiment [4] was “no binding” throughout.
For the substance “V5-tagged RhoA (from UniProt P61586 1-193)”, the binding result in experiment [1] and in experiment [2] was “binds” throughout.
In the case of “V5-tagged RhoB (from UniProt P62745 1-196)”, the binding entry in experiment [1] is on record as “binds”; in experiment [5] it was “no binding”.
Regarding “V5-tagged RhoC (from UniProt P08134 1-193)”, the binding result in experiment [1] and in experiment [2] was “binds” in each case.
“V5-tagged RhoG (from UniProt P84095 1-191)”: the figures for the binding result in experiment [1], in experiment [2] and in experiment [5] were “binds”, “binds” and “no binding”, respectively.
As to “V5-tagged TC10/RhoQ (from UniProt P17081 1-205)”, the binding entry in experiment [1], in experiment [2] and in experiment [5] was “no binding” each time.
“V5-tagged TCL/RhoJ (from UniProt Q9H4E5 1-214)”: the binding entry in experiment [1], in experiment [2] and in experiment [5] was “no binding” in each case.
“V5-tagged Wrch1/RhoU (from UniProt Q7L0Q8 1-258)”: the binding entry in experiment [1], in experiment [3] and in experiment [4] was “no binding” in each case.
